# The other results are listed elsewhere or left out.
# Molecular target: T1, OsWOX13 (Oryza sativa, UniProt Q5QMM3 1-267)
# T1 sequence: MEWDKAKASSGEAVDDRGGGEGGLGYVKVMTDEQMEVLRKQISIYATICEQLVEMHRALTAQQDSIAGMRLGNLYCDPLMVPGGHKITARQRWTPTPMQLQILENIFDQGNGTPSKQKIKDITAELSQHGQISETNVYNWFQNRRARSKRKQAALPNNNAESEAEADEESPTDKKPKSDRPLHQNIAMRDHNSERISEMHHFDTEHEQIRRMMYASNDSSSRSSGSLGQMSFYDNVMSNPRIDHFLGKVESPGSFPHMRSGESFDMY
# Assay: protein-binding microarray (RPBM); PBS, 2% BSA, 51.3 ng/ul salmon testes DNA, 50 uM zinc acetate, 200 nM TF, 25 C, 1 h; high values mean tight binding
# Conditions: protein: recombinant; tags: N-terminal polyhistidine and DsRed monomer fusion (pET32a); label: CyDye5-dUTP incorporated in the synthesized complementary strand; 3' TTTTT single-stranded linker to array surface; dsDNA, one strand shown
# Summary of the method: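 A custom Agilent array was converted to double-stranded form by primer extension with Cy5-dUTP and blocked with 2% BSA. Protein at 200 nM in PBS with 2% BSA, salmon testes DNA and 50 µM zinc acetate was applied for 1 h at 25 °C, followed by washing. The proteins were polyhistidine–DsRed N-terminal fusions of transcription factors, expressed in E. coli BL21-CodonPlus and Ni–NTA-purified. The binding signal is per-feature fluorescence intensity (arbitrary units) from an Axon 4000B scanner.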
row,Sequence,binding signal
1,AAGCAAGTGATTAATCATTCACGTCTTCTGCATGATCATCCGGAGTCACCTAGTGCAG,12900 fluorescence intensity (a.u.)
2,ATGGATGTTCTAAATTAGACTAATTTAAGTATCTTGACAACGGAGTCACCTAGTGCAG,12800 fluorescence intensity (a.u.)
3,CACTAATTAACAATGGAGCTGTACGCACTAGTAGTAATTCCGGAGTCACCTAGTGCAG,20100 fluorescence intensity (a.u.)
4,TTTAATTTTCTTGTTTGTCATCAACATGACAGCAAACAAACGGAGTCACCTAGTGCAG,8500 fluorescence intensity (a.u.)
5,GATAAATGGGTTGATCCAATTGAACACGTACGCAGTGGGGCGGAGTCACCTAGTGCAG,6580 fluorescence intensity (a.u.)
6,GTCCACTCCCCGTTGATTTGATTTGTCTCGTAGCTGCAGCCGGAGTCACCTAGTGCAG,12600 fluorescence intensity (a.u.)
7,TTAATTATATGCTAATGGCTAACCTTATTTTACGTATCTTCGGAGTCACCTAGTGCAG,5100 fluorescence intensity (a.u.)
8,TTAATGAAAACCAATGTGATTGTTCGGCACGGTCACACGACGGAGTCACCTAGTGCAG,5270 fluorescence intensity (a.u.)
9,AAATTTATGTAATTATCATTTATTTTATTATGACTTGATTCGGAGTCACCTAGTGCAG,13300 fluorescence intensity (a.u.)
10,CATTAACTGGGATACCATCAATTAGCGGTGACCCTACTAACGGAGTCACCTAGTGCAG,18300 fluorescence intensity (a.u.)
11,AGCTTTAATTTAGTGAATGGAAATACTCCATATTTATTTGCGGAGTCACCTAGTGCAG,10700 fluorescence intensity (a.u.)
12,CTCCATATCAATCAAACGGGACGATATAAGCGACATATCACGGAGTCACCTAGTGCAG,13900 fluorescence intensity (a.u.)
13,GTTAATTGCCACATCTAAATATGGCAAACGGTTAAATATCCGGAGTCACCTAGTGCAG,28500 fluorescence intensity (a.u.)
14,GCAAAACACCAGTATCAATCATTTGGCAATAAGACGTACTCGGAGTCACCTAGTGCAG,4580 fluorescence intensity (a.u.)
15,TATTGAGCCTAATTAATCCATGATTAGCCTATATGATGCTCGGAGTCACCTAGTGCAG,18500 fluorescence intensity (a.u.)
16,CAGGATTGGAAACTTTCAACTTGAGATTTGAAAACTTTCACGGAGTCACCTAGTGCAG,5250 fluorescence intensity (a.u.)
17,AATTAATCAATCACAGGTTATTAGTACTCCAGCATAGGTACGGAGTCACCTAGTGCAG,38600 fluorescence intensity (a.u.)
18,AAACCCACTAATTATTGTCCTTCATTTGGCCCTTCATATACGGAGTCACCTAGTGCAG,5900 fluorescence intensity (a.u.)
19,ATTGAGGTCTAATCTGATTTAGATTATTGAGCGGATCACCCGGAGTCACCTAGTGCAG,7650 fluorescence intensity (a.u.)
20,TCTAACAATTGAACAATTTAATTCCGCCATTCTTGGATTCCGGAGTCACCTAGTGCAG,11000 fluorescence intensity (a.u.)
21,TTCAAACACATGATTGCCCTCGTCAAACAAGACACATGTGCGGAGTCACCTAGTGCAG,29000 fluorescence intensity (a.u.)
22,TTATCAGCCTATAAATTTATTATTATTTATGTCCTCCACACGGAGTCACCTAGTGCAG,3150 fluorescence intensity (a.u.)
23,TAGTAATTTTATTTCTAGCAACCATTGATCCAAATCGAACCGGAGTCACCTAGTGCAG,3580 fluorescence intensity (a.u.)
24,GGACTGCTATAGGCAAATTGAAATTAGCATGCAGCTCTGGCGGAGTCACCTAGTGCAG,3260 fluorescence intensity (a.u.)
25,TAACCTAGCAATCACCGCATTGATCCTGTTGCCCTTTGTGCGGAGTCACCTAGTGCAG,5050 fluorescence intensity (a.u.)
26,TACTGATGAGGATCAAAATTTAGTGATCAACCGATAATGTCGGAGTCACCTAGTGCAG,4700 fluorescence intensity (a.u.)
27,TTATTATTATTAATCAATCGCCTTCTTCCCCTCTTCCCTCCGGAGTCACCTAGTGCAG,3850 fluorescence intensity (a.u.)

row,Sequence,binding signal
1,GAAGATTTAGATTTTACATTGGTTTTCATTAACACGTTTTCGGAGTCACCTAGTGCAG,6700 fluorescence intensity (a.u.)
2,AGTTGTAATTATATTATAACTTACACATAATTACAACGTACGGAGTCACCTAGTGCAG,23500 fluorescence intensity (a.u.)
3,CTGCAACAGCATTCAATTACCGTAGCCGCTGTAACTAGGGCGGAGTCACCTAGTGCAG,3150 fluorescence intensity (a.u.)
4,CAATTGGACAAATTAACTTCAAGTTATGCACTTATGCTATCGGAGTCACCTAGTGCAG,7160 fluorescence intensity (a.u.)
5,TTTAAACCTAATTGCTGTATGATTTGATAATAAGGTGCTACGGAGTCACCTAGTGCAG,24200 fluorescence intensity (a.u.)
6,ACTTTAATAAGTTAATTAAGTCAATAGATTATGTAATAAGCGGAGTCACCTAGTGCAG,14900 fluorescence intensity (a.u.)
7,TGGTTTAAATTTAGGTTTGGTGTGTGATCTGTACTACCCACGGAGTCACCTAGTGCAG,3860 fluorescence intensity (a.u.)
8,TCACGATTGATTTTAGCAAAACGTTAAGCAAATTGCTTTACGGAGTCACCTAGTGCAG,19800 fluorescence intensity (a.u.)
9,CATAATTTACATAATATTCCAACATATATCTTCATTATTTCGGAGTCACCTAGTGCAG,5730 fluorescence intensity (a.u.)
10,AGAGTTATTTATAATTTATATTCCCAATATTTGACTTAAACGGAGTCACCTAGTGCAG,3200 fluorescence intensity (a.u.)
11,TCAAAGTTGTAGACAATCACACGTGTGATGACTTGCGACACGGAGTCACCTAGTGCAG,4040 fluorescence intensity (a.u.)
12,ATAATTAGATTAAAATAGATTTTACCCGTTGCAATGCACGCGGAGTCACCTAGTGCAG,56200 fluorescence intensity (a.u.)
13,CATGGCGGGGAGATTAATTGAGCATCATTTGTAAATTGAGCGGAGTCACCTAGTGCAG,7480 fluorescence intensity (a.u.)
14,ATCTATAATTTATTTTGTTATTAATCTATATTTAATACTTCGGAGTCACCTAGTGCAG,5690 fluorescence intensity (a.u.)
15,TTAAATGGTGGAGAGTTGTGATTGGTTGGGAATGTGATGTCGGAGTCACCTAGTGCAG,10400 fluorescence intensity (a.u.)
16,ATAAATAAAATTAGGCCATATTTGCACTGAAATGTCTGCCCGGAGTCACCTAGTGCAG,3350 fluorescence intensity (a.u.)
17,CTATGGTTCAATCAAACGGTCATTCCTGTGATTTTCCTTCCGGAGTCACCTAGTGCAG,5790 fluorescence intensity (a.u.)
18,TTTTAGATTGCTAAGAACACATATATAAAAGATTTATTCACGGAGTCACCTAGTGCAG,3720 fluorescence intensity (a.u.)
19,AGCATCTTCTGTACTAATCAATTATAAACTTACCCTAGCTCGGAGTCACCTAGTGCAG,6440 fluorescence intensity (a.u.)
20,TCTAGTATTGGTAGATTGGTACCACCAGTCTACTGCCAGTCGGAGTCACCTAGTGCAG,3610 fluorescence intensity (a.u.)
21,AAAGAAACAAACAGAATAATTAAATTTTACATGAAGCACACGGAGTCACCTAGTGCAG,8480 fluorescence intensity (a.u.)
22,CGAAAATCATTAATACATTGACTAATATAGCACTATAGCACGGAGTCACCTAGTGCAG,9780 fluorescence intensity (a.u.)
23,CTCCAGATTGTCTGATGGACTACCAGCCTACCACTAGCTACGGAGTCACCTAGTGCAG,6310 fluorescence intensity (a.u.)
24,GTCATGTGAAATTTATAATTTAAAATATTATAGTTTTACACGGAGTCACCTAGTGCAG,6830 fluorescence intensity (a.u.)
25,GTGGATGTGATCCGCATGATTGATGTCATCATGAATATATCGGAGTCACCTAGTGCAG,20400 fluorescence intensity (a.u.)
26,GTTCTGATTTCTCAAGGTTTACCAACCTGCCATCTCCCATCGGAGTCACCTAGTGCAG,4220 fluorescence intensity (a.u.)
27,TTGTTTCATCAGTGACTGATCCTTTGTCTTGTTCATTTTGCGGAGTCACCTAGTGCAG,3560 fluorescence intensity (a.u.)

# From paper PMC7819943, “Rice protein-binding microarrays: a tool to detect cis-acting elements near promoter regions in rice”
